From PMC11014909 (2024)
Results are given in words; binding and its absence hold for the method and conditions named. Binding seen in cells or lysates may run through a third protein. Some binding calls cover weakened binding; strength is not graded here. Where a sequence is shown, tags or fusion partners need not be part of it.

Amino acid sequences for entries named in this document (tags omitted). A change or cut given only in a name is not applied to a line headed by its entry.
UniProt P22336: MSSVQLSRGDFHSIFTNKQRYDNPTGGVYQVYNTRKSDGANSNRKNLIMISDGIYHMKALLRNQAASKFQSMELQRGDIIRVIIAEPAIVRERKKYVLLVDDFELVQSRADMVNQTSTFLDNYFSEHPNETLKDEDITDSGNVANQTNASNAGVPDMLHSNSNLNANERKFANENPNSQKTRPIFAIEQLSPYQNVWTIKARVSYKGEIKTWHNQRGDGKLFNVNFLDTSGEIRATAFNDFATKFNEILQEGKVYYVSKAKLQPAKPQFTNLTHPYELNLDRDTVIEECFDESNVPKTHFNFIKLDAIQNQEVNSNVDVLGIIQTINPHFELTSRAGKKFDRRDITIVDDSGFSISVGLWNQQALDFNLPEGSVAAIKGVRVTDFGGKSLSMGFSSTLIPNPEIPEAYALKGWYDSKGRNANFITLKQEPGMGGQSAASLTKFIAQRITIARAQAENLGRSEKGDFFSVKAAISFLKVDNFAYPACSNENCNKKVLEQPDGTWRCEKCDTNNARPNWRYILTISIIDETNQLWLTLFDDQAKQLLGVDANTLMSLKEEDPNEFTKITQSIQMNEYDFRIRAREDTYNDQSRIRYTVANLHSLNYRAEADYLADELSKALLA

Key:
[1] = target: T1, GST-Pif1N(42–250) (S. cerevisiae) (UniProt P07271); experiment: pull-down; GST fusions from E. coli immobilised on glutathione beads, incubated with E. coli cleared lysate holding Rfa1N-4myc 2 h at 4 °C, washed twice with ELB; myc-specific western blot; only the target purified
T1 sequence: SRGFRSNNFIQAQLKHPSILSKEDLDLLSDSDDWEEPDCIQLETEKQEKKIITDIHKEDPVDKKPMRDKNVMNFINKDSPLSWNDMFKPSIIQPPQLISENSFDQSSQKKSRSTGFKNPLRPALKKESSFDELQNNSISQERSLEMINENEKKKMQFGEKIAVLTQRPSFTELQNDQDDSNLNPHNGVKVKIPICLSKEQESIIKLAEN

[2] = target: T2, GST-Pif1N(56–77) (S. cerevisiae) (UniProt P07271); experiment: as above
T2 sequence: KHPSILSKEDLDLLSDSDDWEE

[3] = target: T1, GST-Pif1N(42–250) (S. cerevisiae); experiment: pull-down; GST fusions from E. coli immobilised on glutathione beads, incubated with yeast cleared lysate 2 h at 4 °C, washed twice with ELB (50 mM Tris-HCl pH 7.5, 50 mM NaCl, 5 mM EDTA, 1.5 mM BME); western blot with anti-RPA antibody; only the target purified
[4] = target: T3, GST-Pif1C(750–859) (S. cerevisiae) (UniProt P07271); experiment: as above
T3 sequence: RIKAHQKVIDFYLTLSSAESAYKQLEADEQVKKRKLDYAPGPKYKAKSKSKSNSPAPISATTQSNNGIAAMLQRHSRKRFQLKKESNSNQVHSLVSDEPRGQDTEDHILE

[5] = target: T4, Pif1-4myc (nuclear Pif1, wild type) (S. cerevisiae) (UniProt P07271); experiment: co-IP; yeast cleared lysates, anti-myc 9E10 and Protein G Dynabeads, 2 h at 4 °C; Rfa1 detected with anti-RPA antibody
T4 sequence: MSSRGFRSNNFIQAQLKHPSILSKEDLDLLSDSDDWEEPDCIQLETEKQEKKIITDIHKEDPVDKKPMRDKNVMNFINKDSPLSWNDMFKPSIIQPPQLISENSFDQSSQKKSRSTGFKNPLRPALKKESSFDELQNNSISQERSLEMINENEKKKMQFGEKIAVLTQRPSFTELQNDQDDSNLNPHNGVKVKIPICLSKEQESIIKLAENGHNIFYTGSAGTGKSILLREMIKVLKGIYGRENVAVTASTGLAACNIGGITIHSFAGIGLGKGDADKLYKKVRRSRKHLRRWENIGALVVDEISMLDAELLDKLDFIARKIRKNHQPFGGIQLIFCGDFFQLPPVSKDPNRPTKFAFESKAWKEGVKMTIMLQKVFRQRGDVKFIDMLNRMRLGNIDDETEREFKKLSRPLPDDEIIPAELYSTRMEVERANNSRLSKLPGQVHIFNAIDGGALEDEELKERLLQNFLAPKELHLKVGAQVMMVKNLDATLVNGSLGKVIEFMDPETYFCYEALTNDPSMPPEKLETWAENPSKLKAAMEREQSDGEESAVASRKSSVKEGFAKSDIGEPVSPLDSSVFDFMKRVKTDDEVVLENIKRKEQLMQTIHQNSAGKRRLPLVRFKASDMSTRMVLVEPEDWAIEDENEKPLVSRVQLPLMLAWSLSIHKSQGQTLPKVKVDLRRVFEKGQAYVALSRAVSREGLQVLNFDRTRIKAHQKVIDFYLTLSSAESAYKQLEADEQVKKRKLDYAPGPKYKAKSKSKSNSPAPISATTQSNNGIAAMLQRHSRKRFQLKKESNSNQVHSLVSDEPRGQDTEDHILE

binding [1] | binding [2] | binding [3] | binding [4] | binding [5] | Substance
binds | binds | – | – | – | Rfa1N(1–132)-4myc (from UniProt P22336 1-132) (domain or fragment)
– | – | binds | no binding | binds | Rfa1, the largest subunit of the RPA complex (from UniProt P22336 1-621)
